Experimental data published in patent US7083949.

Columns and labels:
Experiment in all cases: cell-based or functional assay
[1] = molecular target: recombinant human IL-1 (human)
human IL-13 (human) = human IL-13 (human) (UniProt P35225)
human IL-4 (human) = human IL-4 (human) (UniProt P05112)
UniProt P05112, sequence (P05112 25-153 limits assumed): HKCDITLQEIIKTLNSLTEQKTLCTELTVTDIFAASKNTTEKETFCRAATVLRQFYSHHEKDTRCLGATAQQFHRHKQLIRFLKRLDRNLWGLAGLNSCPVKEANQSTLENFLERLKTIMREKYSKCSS

UniProt P35225, sequence (P35225 35-146 limits assumed): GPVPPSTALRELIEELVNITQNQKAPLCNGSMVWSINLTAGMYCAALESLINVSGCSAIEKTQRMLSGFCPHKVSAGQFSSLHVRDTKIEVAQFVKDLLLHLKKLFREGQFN

IL-1-dependent production of IL-6 by MRC5 cells; fold against IL1RI.Fc (fold better than IL1RI.Fc) [1]: 100
IL-1-dependent production of IL-6 by MRC5 cells; highest IL-1 concentration blocked by 10 nM Trap [1]: 3 nM
B1: IL1 Trap 1SC569 (Fc fusion)
chain: SERCDDWGLDTMRQIQVFEDEPARIKCPLFEHFLKFNYSTAHSAGLTLIWYWTRQDRDLEEPINFRLPENRISKEKDVLWFRPTLLNDTGNYTCMLRNTTYCSKVAFPLEVVQKDSCFNSPMKLPVHKLYIEYGIQRITCPNVDGYFPSSVKPTITWYMGCYKIQNFNNVIPEGMNLSFLIALISNNGNYTCVVTYPENGRTFHLTRTLTVKVVGSPKNAVPPVIHSPNDHVVYEKEPGEELLIPCTVYFSFLMDSRNEVWWTIDGKKPDDITIDVTINESISHSRTEDETRTQILSIKKVTSEDLKRSYVCHARSAKGEVAKAAKVKQKVPAPRYTVSGGAPMLSEADKCKEREEKIILVSSANEIDVRPCPLNPNEHKGTITWYKDDSKTPVSTEQASRIHQHKEKLWFVPAKVEDSGHYYCVVRNSSYCLRIKISAKFVENEPNLCYNAQAIFKQKLPVAGDGGLVCPYMEFFKNENNELPKLQWYKDCKPLLLDNIHFSGVKDRLIVMNVAEKHRGNYTCHASYTYLGKQYPITRVIEFITLEENKPTRPVIVSPANETMEVDLGSQIQLICNVTGQLSDIAYWKWNGSVIDEDDPVLGEDYYSVENPANKRRSTLITVLNISEIESRFYKHPFTCFAKNTHGIDAAYIQLIYPVTNSG[not shown - human IgG1 Fc]

TF1 bioassay; activity against Trap 943 (fold better than Trap 943) (human IL-13 (human)): 2 to 3
TF1 bioassay; activity against Trap 943 (fold better than Trap 943) (human IL-4 (human)): 2 to 3
B2: IL-4/IL-13 Trap 1126 (Fc fusion)
chain: GGGGAAPTETQPPVTNLSVSVENLSTVIWTWNPPEGASSNCSLWYFSHFGDKQDKKIAPETRRSIEVPLNERICLQVGSQCSTNESEKPSILVEKCISPPEGDPESAVTELQCIWHNLSYMKCSWLPGRNTSPDTNYTLYYWHRSLEKIHQCENIFREGQYFGCSFDLTKVKDSSFEQHSVQIMVKDNAGKIKPSFNIVPLTSRVKPDPPHIKNLSFHNDDLYVQWENPQNFISRCLFYEVEVNNSQTETHNVFYVQEAKCENPEFERNVENTSCFMVPGVLPDTLNTVRIRVKTNKLCYEDDKLWSNWSQEMSIGNMKVLQGKKRNSTEPTCVSDYMSISTCEWKMNGPTNCSTELRLLYQLVFLLSEAHTCIPENNGGAGCVCHLLMDDVVSADNYTLDLWAGQQLLWKGSFKPSEHVKPRAPGNLTVHTNVSDTLLLTWSNPYPPDNYLYNHLTYAVNIWSENDPADFRIYNVTYLEPSLRIAASTLKSGISYRARVRAWAQSYNTTWSEWSPSTKWHNSYREPFEQSG[not shown - human IgG1 Fc]

TF1 bioassay; activity against Trap 943 (fold better than Trap 943) (human IL-13 (human)): 2 to 3
TF1 bioassay; activity against Trap 943 (fold better than Trap 943) (human IL-4 (human)): 2 to 3
B3: IL-4/IL-13 Trap 1130 (Fc fusion)
chain: B2 chain with S25A

Changes are numbered by the printed parent chain. Each block holds one binder with its values, some of them ahead of it.
